Reference: the RNAGym collection of RNA variant scans (doi:10.1093/nar/gkz1192)
Read counts are not given, so values of variants with three or more changes are uncertain.

B1: CPEB3 Ribozyme (parent)
chain: UAACAGGGGGCCACAGCAGAAGCGUUCACGUCGCAGCCCCUGUCAGAUUCUGGUGAAUCUGCGAAUUCUGCUGUAUAUCUC

Variants of: B1
Assay: self-cleavage, relative activity (ratio to wild type); higher = more cleavage; in vitro, sequencing
Summary of the method: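 Libraries of CPEB3 self-cleaving ribozyme mutants came from rounds of error-prone PCR and carried barcodes, which DNA sequencing matched to variants. In vitro transcription used T7 RNA polymerase at 37°C for 5 hours, with a further 15 min in DNase I before EDTA stopped the reaction; the ribozymes cleaved during both steps. The RNA was reverse transcribed with template switching and sequenced on Illumina. Relative activity is the cleaved/total read fraction of a variant divided by that of the unmutated ribozyme, averaged over three batches with at least 5 reads.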

Row | Variant | self-cleavage
1 | A21G U31A C37U | 0.14
2 | A21G U31A U60C | 0.1
3 | A21G U31A U78C | 0.3
4 | A21G U31C A56C A64U | 0.08
5 | A21G U31C A75C | 0.35
6 | A21G U31C C38G | 0.4
7 | A21G U31C U41A A47U A56U A75U | 0.15
8 | A21G U31C U41C A57G U66C | 0.54
9 | A21G U31C U49A U67A | 0.35
10 | A21G U31C U49C | 0.22
11 | A21G U31C U51C U78C U80C | 0.12
12 | A21G U31C U66C | 0.52
13 | A21G U31C U76G U78C | 0.12
14 | A21G U31G G33A G55U C79U | 0.24
15 | A21G U31G U41A | 0.49
16 | A21G U31G U48C | 0.12
17 | A21G U41A A45G U60C A75U | 0.17
18 | A21G U41A A45U U49C G61A | 0.16
19 | A21G U41A C59A U67C | 0.12
20 | A21G U41A G53U | 0.22
21 | A21G U41A U43A U69A | 0.24
22 | A21G U41A U54C A75G | 0.06
23 | A21G U41A U66C | 0.32
24 | A21G U41A U76C | 0.23

Row | Variant | self-cleavage
25 | A21G U41C A45G A64G A65G | 0.52
26 | A21G U41C A56G U58C A64U U72C | 0.15
27 | A21G U41C A64C | 0.13
28 | A21G U41C A64G | 0.51
29 | A21G U41C A64U U66C | 0.18
30 | A21G U41C A77C U78C | 0.75
31 | A21G U41C U54C A56G | 0.1
32 | A21G U41C U67G G70C | 0.21
33 | A21G U41C U78A | 0.62
34 | A21G U41G G53A | 0.07
35 | A21G U43A U49C | 0.25
36 | A21G U43A U51C | 0.81
37 | A21G U43C A45G U48C | 0.24
38 | A21G U43C A47G U72A | 0.21
39 | A21G U43C U48C | 0.09
40 | A21G U43C U60A U69C | 0.06
41 | A21G U43C U60C | 0.15
42 | A21G U43C U78C | 0.66
43 | A21G U43G A45U G52U A64G | 0.06
44 | A21G U43G A64G | 0.23
45 | A21G U43G U49G | 0.07
46 | A21G U48C C68U U69A U72G | 0.04
47 | A21G U48C G61A | 0.2
48 | A21G U48C U51C | 0.19

Row | Variant | self-cleavage
49 | A21G U48C U69C | 0.19
50 | A21G U49A G52A U54A A56G G61C | 0.19
51 | A21G U49C U58C | 0.32
52 | A21G U49C U60C A77C | 0.06
53 | A21G U51A A56G U74G | 0.44
54 | A21G U51A U72C | 0.6
55 | A21G U51A U78C | 0.49
56 | A21G U51A U80A | 0.82
57 | A21G U51C G53C A56G | 0.64
58 | A21G U51C U58A | 0.15
59 | A21G U54A U66C U74A | 1.26
60 | A21G U54C A77U | 0.76
61 | A21G U54C U58C U60C A77C | 0.11
62 | A21G U54C U67C U80G | 0.17
63 | A21G U54G A57G | 0.14
64 | A21G U54G A57U | 0.2
65 | A21G U58A U67A | 0.09
66 | A21G U58A U78C | 0.13
67 | A21G U58C U72A | 0.18
68 | A21G U58G U66C | 0.3
69 | A21G U60C U78C | 0.12
70 | A21G U66C U69A | 0.39
71 | A21G U67C U69C | 0.15
72 | A21G U69A U72A U74C | 0.07

Row | Variant | self-cleavage
73 | A21G U69C U80C | 0.24
74 | A21G U72A A77G | 0.21
75 | A21G U72C C79U | 1.09
76 | A21G U76A A77G | 0.72
77 | A21U A28G G53A | 0.11
78 | A21U A28G U43A U51C A65G | 0.12
79 | A21U A28G U66C | 0.14
80 | A21U A28U A35G A56U U80A | 0.71
81 | A21U A28U C40A A77G | 0.05
82 | A21U A28U C40A U58C U60C U78A | 0.06
83 | A21U A28U G36A C68U | 0.16
84 | A21U A28U U49C U67C | 0.04
85 | A21U A35G C40U U67C G70C | 0.07
86 | A21U A35G U67C | 0.18
87 | A21U A35U U49C U60A U72A | 0.05
88 | A21U A45G C50U | 0.18
89 | A21U A45G U58C U72C | 0.05
90 | A21U A45U A57G G70C | 0.19
91 | A21U A45U U51C | 0.15
92 | A21U A47G U78C | 0.33
93 | A21U A56G U76C | 0.24
94 | A21U A56U A65G U69C | 0.07
95 | A21U A56U G70C | 0.1
96 | A21U A64G A77U | 0.41

Row | Variant | self-cleavage
97 | A21U C27A A56U U78C | 0.18
98 | A21U C27G U67C | 0.11
99 | A21U C38U U41C U60A | 0.09
100 | A21U G30A A35G U48C U51G U72C | 0.05
101 | A21U G33A U41A | 0.1
102 | A21U G36C U41A G52A | 0.07
103 | A21U G46A U80C | 0.09
104 | A21U G52A A57U C79G | 0.34
105 | A21U G52U U67C | 0.53
106 | A21U U25A U31C | 0.16
107 | A21U U25C A28G C38U U54A | 0.05
108 | A21U U25C A45U A77U | 0.07
109 | A21U U25C U26C U69C | 0.08
110 | A21U U25C U48A U49A U69C U78C U80A | 0.11
111 | A21U U25C U69A | 0.33
112 | A21U U26A A57G U58C U76A | 0.14
113 | A21U U26A U51C A57G U69C U78C | 0.08
114 | A21U U26A U69C | 0.07
115 | A21U U26C U41G U43C G70A U80C | 0.5
116 | A21U U26C U49C A57G | 0.11
117 | A21U U26C U51A A64G U80C | 0.14
118 | A21U U31A A47U A57G U67C | 0.07
119 | A21U U31A U41A | 0.43
120 | A21U U31A U41C U51C U67G U69C | 0.1

Row | Variant | self-cleavage
121 | A21U U41A A57G U80C | 0.13
122 | A21U U41A U78A | 0.25
123 | A21U U41C A45C U51C A57G U67G | 0
124 | A21U U41C A45G U48C U54C | 0.28
125 | A21U U41C A45G U49C | 0.09
126 | A21U U41C A45U | 0.37
127 | A21U U41C G53A A64G | 0.31
128 | A21U U41C U76A | 0.41
129 | A21U U43C A77U | 0.28
130 | A21U U48C A65G U76C | 0.05
131 | A21U U48C G52C | 0.14
132 | A21U U49A U51C A56G | 0.31
133 | A21U U51A G52A | 0.44
134 | A21U U58C U67C U72C | 0.29
135 | A21U U60C A64U U67A U69C | 0.12
136 | A21U U60C U67C | 0.14
137 | A21U U69A C71U U80C | 0.05
138 | A21U U74A A77G | 0.6
139 | A21U U74A U78C | 0.58
140 | G22A A28G A35U U41A | 0.24
141 | G22A A28G U49A | 0.19
142 | G22A A35U U58C G61A U69C U78C | 0.05
143 | G22A C40U U48C | 0.25
144 | G22A G24C U54A | 0.13

Row | Variant | self-cleavage
145 | G22A G30C U43C A56G U67A | 0.08
146 | G22A G36A A77U | 0.07
147 | G22A G42U U43C A57U G61A | 0.06
148 | G22A U25C A65G U72C U80C | 0.08
149 | G22A U58C U69A | 0.06
150 | G22C A64U U74A U76C | 0.13
151 | G22C C34A A65U U74C | 0.11
152 | G22C U31C U58C A64G U80A | 0.06
153 | G22C U43C U60C U72C | 0.07
154 | G22C U60A U69G | 0.14
155 | G22C U67C U72C A75U U78C | 0.03
156 | G22U A28G A35C A45G A56G C79U | 0.04
157 | G22U A28G U49C A77U | 0.12
158 | G22U A28U C32A U69C | 0.11
159 | G22U A64U U72C | 0.11
160 | G22U C29G A57U U69C U72C | 0.07
161 | G22U G36A U41C | 0.08
162 | G22U U25C A35G C40A U43C U66C | 0.23
163 | G22U U25C A56G G73A U74C | 0.11
164 | G22U U26A U60C A64G U80C | 0.1
165 | G22U U26C A35U U51C U60A U80C | 0.12
166 | G22U U26C A45G | 0.44
167 | G22U U43C A45G | 0.22
